# Test results: a collection of fitness landscapes (doi:10.1016/j.celrep.2020.107928)
# In all, about 81,000 sequences were measured (“one-hybrid fitness for binding parS DNA”: median about -0.17, highest 2% from about 0.51 on). The list shows a part of the results.
# B1: Caulobacter ParB omega fusion; a variant is named by its letters at X, in order, B8GW30 (parent)
# chain: MESVVVGEPGMSEGRRGLGRGLSALLGEVDAAPAQAPGEQLGGSREAPIEILQRNPDQPRRTFREEDLEDLSNSIREKGVLQPILVRPSPDTAGEYQIVAGERAWRAAQRAGLKTVPIMVRELDDLAVLEIGIIENVQRADLNVLEEALSYKVLMEKFERTQENIAQTIGKSXSHVANXMRLLXLPDEVQSYLVSGELTAXHARAIAAAADPVALAKQIIEGGLSVRETEALARKAPNLSAGKSKGGRPPRVKDTDTQALESDLSSVLGLDVSIDHRGSTGTLTITYATLEQLDDLCNRLTRGI
# Variants of: B1
# Test: one-hybrid fitness for binding parS DNA (scaled: cognate 1, non-cognate 0); higher = stronger binding
# Conditions: with parS DNA site
# Summary of the method: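 Selection: bacterial one-hybrid in E. coli USO, HIS3 reporter with the site 19 bp from the promoter, 48 hours at 37°C on M9-minus-histidine plus 0.1 mM IPTG and 5 mM 3-AT. Libraries were Caulobacter ParB with four randomised specificity codons, sequenced on Illumina before and after selection. Fitness is the rescaled log change in variant-to-wild-type read ratio, anchored to the cognate and non-cognate sites.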
row,Variant,one-hybrid fitness for binding parS DNA
1,KFYV,≤ 0.2
2,RHIS,0.813
3,MIPN,≤ 0.2
4,GYNS,≤ 0.2
5,KFTS,≤ 0.2
6,DAMF,≤ 0.2
7,QVHN,≤ 0.2
8,INPW,≤ 0.2
9,PTKK,≤ 0.2
10,WDHR,≤ 0.2
11,QSLY,≤ 0.2
12,KETT,≤ 0.2
13,TQPI,≤ 0.2
14,DQDR,≤ 0.2
15,HQDS,≤ 0.2
16,THNC,≤ 0.2
17,IYGG,≤ 0.2
18,AGSH,≤ 0.2
19,HQKT,≤ 0.2
20,KARM,≤ 0.2
21,MWLS,≤ 0.2
22,TNWM,≤ 0.2
23,MGGA,≤ 0.2
24,QNLH,≤ 0.2

row,Variant,one-hybrid fitness for binding parS DNA
1,EDIC,≤ 0.2
2,QTCI,≤ 0.2
3,IARP,≤ 0.2
4,RTQV,≤ 0.2
5,GLGT,≤ 0.2
6,WTWS,≤ 0.2
7,KNFC,≤ 0.2
8,QLYP,≤ 0.2
9,PHGY,≤ 0.2
10,PAND,≤ 0.2
11,RNVY,≤ 0.2
12,DGDF,≤ 0.2
13,SAVS,≤ 0.2
14,QFTF,≤ 0.2
15,WYDA,≤ 0.2
16,RWIG,0.569
17,RYYP,≤ 0.2
18,FENS,≤ 0.2
19,EHAT,≤ 0.2
20,HNQC,≤ 0.2
21,PCTP,≤ 0.2
22,KYLE,≤ 0.2
23,SCMS,≤ 0.2
24,HLLG,≤ 0.2

row,Variant,one-hybrid fitness for binding parS DNA
1,EYEG,≤ 0.2
2,RWCV,0.236
3,KFQA,≤ 0.2
4,VFSG,≤ 0.2
5,RVFD,≤ 0.2
6,CPEY,≤ 0.2
7,GCCG,≤ 0.2
8,DLLG,≤ 0.2
9,RRKQ,≤ 0.2
10,NKYG,≤ 0.2
11,YCSR,≤ 0.2
12,QSYF,≤ 0.2
13,WFSC,≤ 0.2
14,LHAD,≤ 0.2
15,HMLW,≤ 0.2
16,PALQ,≤ 0.2
17,KNSC,≤ 0.2
18,GMHG,≤ 0.2
19,APVR,≤ 0.2
20,IPLI,≤ 0.2
21,SRTM,≤ 0.2
22,MQSP,≤ 0.2
23,YMVT,≤ 0.2
24,CVDC,≤ 0.2

row,Variant,one-hybrid fitness for binding parS DNA
1,GTNL,≤ 0.2
2,ISSY,≤ 0.2
3,IFAR,≤ 0.2
4,TAVE,≤ 0.2
5,SCNY,≤ 0.2
6,HKRS,≤ 0.2
7,LLDR,≤ 0.2
8,NTAW,≤ 0.2
9,AVKE,≤ 0.2
10,SVLD,≤ 0.2
11,VQTW,≤ 0.2
12,ALYF,≤ 0.2
13,SHQP,≤ 0.2
14,TLCF,≤ 0.2
15,LGWL,≤ 0.2
16,RKDF,≤ 0.2
17,QFKT,≤ 0.2
18,YPLE,≤ 0.2
19,PWSR,≤ 0.2
20,FRYA,≤ 0.2
21,QNNH,≤ 0.2
22,LQWI,≤ 0.2
23,STSM,≤ 0.2
24,SLLG,≤ 0.2

row,Variant,one-hybrid fitness for binding parS DNA
1,FNPR,≤ 0.2
2,TPHG,≤ 0.2
3,PMGS,≤ 0.2
4,PGIC,≤ 0.2
5,NYHS,≤ 0.2
6,RHWG,0.844
7,PMRL,≤ 0.2
8,QGRE,≤ 0.2
9,RDST,≤ 0.2
10,KISR,≤ 0.2
11,FCDT,≤ 0.2
12,YLGD,≤ 0.2
13,ECKG,≤ 0.2
14,TSWL,≤ 0.2
15,LHGC,≤ 0.2
16,VKVR,≤ 0.2
17,WYAC,≤ 0.2
18,PFSL,≤ 0.2
19,TCRN,≤ 0.2
20,LMIL,≤ 0.2
21,TQER,≤ 0.2
22,HGKY,≤ 0.2
23,LLAS,≤ 0.2
24,SLNW,≤ 0.2

row,Variant,one-hybrid fitness for binding parS DNA
1,AMSL,≤ 0.2
2,TEYS,≤ 0.2
3,CQGR,≤ 0.2
4,AVAF,≤ 0.2
5,PKDG,≤ 0.2
6,TWKS,≤ 0.2
7,CSAV,≤ 0.2
8,NSSW,≤ 0.2
9,WQGN,≤ 0.2
10,PYRG,≤ 0.2
11,YLKD,≤ 0.2
12,CLRH,0.227
13,HGQC,≤ 0.2
14,VVWG,≤ 0.2
15,VIMY,≤ 0.2
16,KTHF,≤ 0.2
17,QFRM,≤ 0.2
18,HFCG,≤ 0.2
19,AEPF,≤ 0.2
20,NQPL,≤ 0.2
21,PANY,≤ 0.2
22,LGKT,≤ 0.2
23,DVQL,≤ 0.2
24,LQSF,≤ 0.2

row,Variant,one-hybrid fitness for binding parS DNA
1,TKHS,≤ 0.2
2,DTLL,≤ 0.2
3,HNFD,≤ 0.2
4,QRHY,≤ 0.2
5,WLHC,≤ 0.2
6,CSFS,≤ 0.2
7,RFTC,0.95
8,VKVV,≤ 0.2
9,AFKT,≤ 0.2
10,SVQY,≤ 0.2
11,CCTL,≤ 0.2
12,DGSC,≤ 0.2
13,SMNH,≤ 0.2
14,FNSK,≤ 0.2
15,RGEC,0.449
16,RCDQ,≤ 0.2
17,CYMA,≤ 0.2
18,PETV,≤ 0.2
19,VQSS,≤ 0.2
20,LMTA,≤ 0.2
21,QKPF,≤ 0.2
22,QTLS,≤ 0.2
23,VKMF,≤ 0.2
24,EKPG,≤ 0.2

row,Variant,one-hybrid fitness for binding parS DNA
1,KLMQ,≤ 0.2
2,ACTE,≤ 0.2
3,RFRA,0.602
4,DNWY,≤ 0.2
5,VLAR,≤ 0.2
6,CRFT,≤ 0.2
7,WHQT,≤ 0.2
8,CKAC,≤ 0.2
9,QTYN,≤ 0.2
10,IRPF,≤ 0.2
11,RLEL,≤ 0.2
12,MVHS,≤ 0.2
13,HAHP,≤ 0.2
14,RGNY,0.313
15,YSSG,≤ 0.2
16,PWKS,≤ 0.2
17,SRAL,≤ 0.2
18,ARKD,≤ 0.2
19,PDFI,≤ 0.2
20,YFSR,≤ 0.2
21,AWSL,≤ 0.2
22,RETI,≤ 0.2
23,ETSF,≤ 0.2
24,ATHQ,≤ 0.2

row,Variant,one-hybrid fitness for binding parS DNA
1,CYHM,≤ 0.2
2,QGSE,≤ 0.2
3,SALE,≤ 0.2
4,SCCT,≤ 0.2
5,RTIE,≤ 0.2
6,PHTV,≤ 0.2
7,LNTC,≤ 0.2
8,RHSF,≤ 0.2
9,AAMY,≤ 0.2
10,RPSR,≤ 0.2
11,FARG,≤ 0.2
12,DSYC,≤ 0.2
13,NDPK,≤ 0.2
14,DASR,≤ 0.2
15,RFDW,≤ 0.2
16,PKAC,≤ 0.2
17,RLQP,0.206
18,PDRR,≤ 0.2
19,TDLL,≤ 0.2
20,VESG,≤ 0.2
21,RQKY,0.581
22,PDSV,≤ 0.2
23,HHGL,≤ 0.2
24,GFMS,≤ 0.2

row,Variant,one-hybrid fitness for binding parS DNA
1,CSNM,≤ 0.2
2,DMVF,≤ 0.2
3,RNLR,≤ 0.2
4,NIDV,≤ 0.2
5,YPEY,≤ 0.2
6,TSGH,≤ 0.2
7,LPIV,≤ 0.2
8,MGAG,≤ 0.2
9,KNIT,≤ 0.2
10,RKCT,0.803
11,MVSC,≤ 0.2
12,AQEK,≤ 0.2
13,QTLT,≤ 0.2
14,VSLR,≤ 0.2
15,GQAG,≤ 0.2
16,QANQ,≤ 0.2
17,TLCA,≤ 0.2
18,QSVR,≤ 0.2
19,SRTK,≤ 0.2
20,EWLT,≤ 0.2
21,PLQF,≤ 0.2
22,MHTE,≤ 0.2
23,MFHS,≤ 0.2
24,KMLW,≤ 0.2

row,Variant,one-hybrid fitness for binding parS DNA
1,VTVH,≤ 0.2
2,EMSW,≤ 0.2
3,KGWL,≤ 0.2
4,RDLN,≤ 0.2
5,AHAF,≤ 0.2
6,RMAC,0.994
7,VWPC,≤ 0.2
8,VDSN,≤ 0.2
9,QTPC,≤ 0.2
10,QIMC,≤ 0.2
11,SSMH,≤ 0.2
12,ECIV,≤ 0.2
13,FINF,≤ 0.2
14,YWWR,≤ 0.2
15,AATM,≤ 0.2
16,CKMG,≤ 0.2
17,MGRI,≤ 0.2
18,RCYH,0.301
19,QSHG,≤ 0.2
20,EGIC,≤ 0.2
21,KYKM,≤ 0.2
22,MLLP,≤ 0.2
23,QVMY,≤ 0.2
24,GSLK,≤ 0.2

row,Variant,one-hybrid fitness for binding parS DNA
1,PETM,≤ 0.2
2,RQMW,0.232
3,QSCS,≤ 0.2
4,YRFS,≤ 0.2
5,PHPH,≤ 0.2
6,MARV,≤ 0.2
7,RFLH,0.217
8,NMAP,≤ 0.2
9,VDRG,≤ 0.2
10,VTVT,≤ 0.2
11,YNNK,≤ 0.2
12,KPVC,≤ 0.2
13,QRPH,≤ 0.2
14,CPEG,≤ 0.2
15,PPKV,≤ 0.2
16,EPKG,≤ 0.2
17,PPDN,≤ 0.2
18,VFFA,≤ 0.2
19,EAFG,≤ 0.2
20,RAHL,≤ 0.2
21,GNIG,≤ 0.2
22,DDCV,≤ 0.2
23,ELRK,≤ 0.2
24,SKLL,≤ 0.2

row,Variant,one-hybrid fitness for binding parS DNA
1,RGRC,0.798
2,RCHH,≤ 0.2
3,GWIG,≤ 0.2
4,MYER,≤ 0.2
5,LNHG,≤ 0.2
6,NEYS,≤ 0.2
7,REKI,≤ 0.2
8,AQSV,≤ 0.2
9,TNRD,≤ 0.2
10,GLGC,≤ 0.2
11,TEHD,≤ 0.2
12,PATM,≤ 0.2
13,GVAR,≤ 0.2
14,YTAA,≤ 0.2
15,INDI,≤ 0.2
16,KGIT,≤ 0.2
17,QAHV,≤ 0.2
18,VIGS,≤ 0.2
